# In PMC12820563:
# The list shows a part of the results. The list includes weakly bound sequences.
# Target: T1, MBP-FoxP3dN (UniProt Q99JB6)
# T1 sequence: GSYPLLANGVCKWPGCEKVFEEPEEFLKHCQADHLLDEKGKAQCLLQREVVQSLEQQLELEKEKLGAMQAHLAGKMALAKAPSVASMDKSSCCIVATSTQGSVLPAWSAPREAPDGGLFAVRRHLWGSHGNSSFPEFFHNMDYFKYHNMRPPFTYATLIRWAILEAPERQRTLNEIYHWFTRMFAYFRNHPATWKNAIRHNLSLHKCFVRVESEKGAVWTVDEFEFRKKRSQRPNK
# Experiment: PD-seq (MBP pull-down with sequencing)
# Conditions: 20 mM Tris-HCl pH 7.5, 100 mM NaCl, 1.5 mM MgCl2, 0.4 uM protein, 0.1 uM dsDNA library, 30 min, room temperature, amylose pull-down; high values mean tight binding; double strand, one strand shown
row,Sequence,binding signal (RPM ratio (pull-down/input))
1,GATGATTGTTCTCCCAGCTGATGAATTTCGTCGATCGAGTAAACAAATTTTCCTAATCTTTCTGTTCAAGCGCCATCTAC,0.362
2,GATGATTGTTCTCCCAGCTGATGAATTCCACCTGTCGAGTAAACAAATTTTCCTAATCTTTCTGTTCAAGCGCCATCTAC,0.3
3,GATGATTGTTCTCCCAGCTGATGAATTTAGAAAGTCGAGTAAACAAATTTTCCTAATCTTTCTGTTCAAGCGCCATCTAC,0.256
4,GATGATTGTTCTCCCAGCTGATGAATTAGCTGTTTCGAGTAAACAAATTTTCCTAATCTTTCTGTTCAAGCGCCATCTAC,3.19
5,GATGATTGTTCTCCCAGCTGATGAATTCGCCCATTCGAGTAAACAAATTTTCCTAATCTTTCTGTTCAAGCGCCATCTAC,0.4
6,GATGATTGTTCTCCCAGCTGATGAATTGGGGCGTTCGAGTAAACAAATTTTCCTAATCTTTCTGTTCAAGCGCCATCTAC,1.01
7,GATGATTGTTCTCCCAGCTGATGAATTCAGTATTTCGAGTAAACAAATTTTCCTAATCTTTCTGTTCAAGCGCCATCTAC,2.18
8,GATGATTGTTCTCCCAGCTGATGAATTGATATCCTCGAGTAAACAAATTTTCCTAATCTTTCTGTTCAAGCGCCATCTAC,0.672
9,GATGATTGTTCTCCCAGCTGATGAATTATACCGGTCGAGTAAACAAATTTTCCTAATCTTTCTGTTCAAGCGCCATCTAC,0.324
10,GATGATTGTTCTCCCAGCTGATGAATTTCTTAAATCGAGTAAACAAATTTTCCTAATCTTTCTGTTCAAGCGCCATCTAC,0.192
11,GATGATTGTTCTCCCAGCTGATGAATTCGTTCCTTCGAGTAAACAAATTTTCCTAATCTTTCTGTTCAAGCGCCATCTAC,0.423
12,GATGATTGTTCTCCCAGCTGATGAATTCGAAGCGTCGAGTAAACAAATTTTCCTAATCTTTCTGTTCAAGCGCCATCTAC,0.43
13,GATGATTGTTCTCCCAGCTGATGAATTCTAGAACTCGAGTAAACAAATTTTCCTAATCTTTCTGTTCAAGCGCCATCTAC,0.183
14,GATGATTGTTCTCCCAGCTGATGAATTAATCTACTCGAGTAAACAAATTTTCCTAATCTTTCTGTTCAAGCGCCATCTAC,0.434
15,GATGATTGTTCTCCCAGCTGATGAATTAGCCAGCTCGAGTAAACAAATTTTCCTAATCTTTCTGTTCAAGCGCCATCTAC,0.244
16,GATGATTGTTCTCCCAGCTGATGAATTGGCGCACTCGAGTAAACAAATTTTCCTAATCTTTCTGTTCAAGCGCCATCTAC,0.684
17,GATGATTGTTCTCCCAGCTGATGAATTCGAATGGTCGAGTAAACAAATTTTCCTAATCTTTCTGTTCAAGCGCCATCTAC,0.503
18,GATGATTGTTCTCCCAGCTGATGAATTAACGGTATCGAGTAAACAAATTTTCCTAATCTTTCTGTTCAAGCGCCATCTAC,0.454
19,GATGATTGTTCTCCCAGCTGATGAATTCCGAAGATCGAGTAAACAAATTTTCCTAATCTTTCTGTTCAAGCGCCATCTAC,0.193
20,GATGATTGTTCTCCCAGCTGATGAATTAGCTAGTTCGAGTAAACAAATTTTCCTAATCTTTCTGTTCAAGCGCCATCTAC,1.19
21,GATGATTGTTCTCCCAGCTGATGAATTGGCGGACTCGAGTAAACAAATTTTCCTAATCTTTCTGTTCAAGCGCCATCTAC,0.314

row,Sequence,binding signal (RPM ratio (pull-down/input))
1,GATGATTGTTCTCCCAGCTGATGAATTGGTATAGTCGAGTAAACAAATTTTCCTAATCTTTCTGTTCAAGCGCCATCTAC,1.24
2,GATGATTGTTCTCCCAGCTGATGAATTACCCCATTCGAGTAAACAAATTTTCCTAATCTTTCTGTTCAAGCGCCATCTAC,0.3
3,GATGATTGTTCTCCCAGCTGATGAATTTAGTGGTTCGAGTAAACAAATTTTCCTAATCTTTCTGTTCAAGCGCCATCTAC,2.12
4,GATGATTGTTCTCCCAGCTGATGAATTGCTCGAGTCGAGTAAACAAATTTTCCTAATCTTTCTGTTCAAGCGCCATCTAC,0.36
5,GATGATTGTTCTCCCAGCTGATGAATTCCGTCAATCGAGTAAACAAATTTTCCTAATCTTTCTGTTCAAGCGCCATCTAC,0.393
6,GATGATTGTTCTCCCAGCTGATGAATTCGCAATGTCGAGTAAACAAATTTTCCTAATCTTTCTGTTCAAGCGCCATCTAC,1.31
7,GATGATTGTTCTCCCAGCTGATGAATTTCGGCAATCGAGTAAACAAATTTTCCTAATCTTTCTGTTCAAGCGCCATCTAC,2.11
8,GATGATTGTTCTCCCAGCTGATGAATTGTATCCTTCGAGTAAACAAATTTTCCTAATCTTTCTGTTCAAGCGCCATCTAC,1.61
9,GATGATTGTTCTCCCAGCTGATGAATTGTGCCCGTCGAGTAAACAAATTTTCCTAATCTTTCTGTTCAAGCGCCATCTAC,3.2
10,GATGATTGTTCTCCCAGCTGATGAATTTAGGCGTTCGAGTAAACAAATTTTCCTAATCTTTCTGTTCAAGCGCCATCTAC,1.51
11,GATGATTGTTCTCCCAGCTGATGAATTCAGGAGGTCGAGTAAACAAATTTTCCTAATCTTTCTGTTCAAGCGCCATCTAC,0.192
12,GATGATTGTTCTCCCAGCTGATGAATTATTTCGGTCGAGTAAACAAATTTTCCTAATCTTTCTGTTCAAGCGCCATCTAC,0.309
13,GATGATTGTTCTCCCAGCTGATGAATTAGCTCCTTCGAGTAAACAAATTTTCCTAATCTTTCTGTTCAAGCGCCATCTAC,0.293
14,GATGATTGTTCTCCCAGCTGATGAATTCCGTATGTCGAGTAAACAAATTTTCCTAATCTTTCTGTTCAAGCGCCATCTAC,2.71
15,GATGATTGTTCTCCCAGCTGATGAATTATCAAAGTCGAGTAAACAAATTTTCCTAATCTTTCTGTTCAAGCGCCATCTAC,0.195
16,GATGATTGTTCTCCCAGCTGATGAATTGTACGGTTCGAGTAAACAAATTTTCCTAATCTTTCTGTTCAAGCGCCATCTAC,0.452
17,GATGATTGTTCTCCCAGCTGATGAATTGGATCACTCGAGTAAACAAATTTTCCTAATCTTTCTGTTCAAGCGCCATCTAC,0.489
18,GATGATTGTTCTCCCAGCTGATGAATTGCCGACATCGAGTAAACAAATTTTCCTAATCTTTCTGTTCAAGCGCCATCTAC,0.714
19,GATGATTGTTCTCCCAGCTGATGAATTGATAGTCTCGAGTAAACAAATTTTCCTAATCTTTCTGTTCAAGCGCCATCTAC,0.784
20,GATGATTGTTCTCCCAGCTGATGAATTCTCATCATCGAGTAAACAAATTTTCCTAATCTTTCTGTTCAAGCGCCATCTAC,0.379
21,GATGATTGTTCTCCCAGCTGATGAATTGAGGTTCTCGAGTAAACAAATTTTCCTAATCTTTCTGTTCAAGCGCCATCTAC,0.641

row,Sequence,binding signal (RPM ratio (pull-down/input))
1,GATGATTGTTCTCCCAGCTGATGAATTTAGTGTCTCGAGTAAACAAATTTTCCTAATCTTTCTGTTCAAGCGCCATCTAC,2.93
2,GATGATTGTTCTCCCAGCTGATGAATTGTTTGTGTCGAGTAAACAAATTTTCCTAATCTTTCTGTTCAAGCGCCATCTAC,8.22
3,GATGATTGTTCTCCCAGCTGATGAATTGTTTGGCTCGAGTAAACAAATTTTCCTAATCTTTCTGTTCAAGCGCCATCTAC,3.57
4,GATGATTGTTCTCCCAGCTGATGAATTGACATTTTCGAGTAAACAAATTTTCCTAATCTTTCTGTTCAAGCGCCATCTAC,0.513
5,GATGATTGTTCTCCCAGCTGATGAATTGTGATTCTCGAGTAAACAAATTTTCCTAATCTTTCTGTTCAAGCGCCATCTAC,2.37
6,GATGATTGTTCTCCCAGCTGATGAATTTTGGCGGTCGAGTAAACAAATTTTCCTAATCTTTCTGTTCAAGCGCCATCTAC,0.365
7,GATGATTGTTCTCCCAGCTGATGAATTTACTAGATCGAGTAAACAAATTTTCCTAATCTTTCTGTTCAAGCGCCATCTAC,0.323
8,GATGATTGTTCTCCCAGCTGATGAATTTCTAGCGTCGAGTAAACAAATTTTCCTAATCTTTCTGTTCAAGCGCCATCTAC,0.435
9,GATGATTGTTCTCCCAGCTGATGAATTCACTCGCTCGAGTAAACAAATTTTCCTAATCTTTCTGTTCAAGCGCCATCTAC,0.262
10,GATGATTGTTCTCCCAGCTGATGAATTGGTATCCTCGAGTAAACAAATTTTCCTAATCTTTCTGTTCAAGCGCCATCTAC,1.31
11,GATGATTGTTCTCCCAGCTGATGAATTGGGGGGGTCGAGTAAACAAATTTTCCTAATCTTTCTGTTCAAGCGCCATCTAC,0.83
12,GATGATTGTTCTCCCAGCTGATGAATTGCAGAGATCGAGTAAACAAATTTTCCTAATCTTTCTGTTCAAGCGCCATCTAC,0.478
13,GATGATTGTTCTCCCAGCTGATGAATTTAGTCGGTCGAGTAAACAAATTTTCCTAATCTTTCTGTTCAAGCGCCATCTAC,0.307
14,GATGATTGTTCTCCCAGCTGATGAATTCCAGTACTCGAGTAAACAAATTTTCCTAATCTTTCTGTTCAAGCGCCATCTAC,0.393
15,GATGATTGTTCTCCCAGCTGATGAATTCGCCATATCGAGTAAACAAATTTTCCTAATCTTTCTGTTCAAGCGCCATCTAC,0.952
16,GATGATTGTTCTCCCAGCTGATGAATTAAAAAAATCGAGTAAACAAATTTTCCTAATCTTTCTGTTCAAGCGCCATCTAC,0.138
17,GATGATTGTTCTCCCAGCTGATGAATTACCGACATCGAGTAAACAAATTTTCCTAATCTTTCTGTTCAAGCGCCATCTAC,0.532
18,GATGATTGTTCTCCCAGCTGATGAATTGAAGCAATCGAGTAAACAAATTTTCCTAATCTTTCTGTTCAAGCGCCATCTAC,1.71
19,GATGATTGTTCTCCCAGCTGATGAATTCCTCATTTCGAGTAAACAAATTTTCCTAATCTTTCTGTTCAAGCGCCATCTAC,0.318
20,GATGATTGTTCTCCCAGCTGATGAATTAGAGCCGTCGAGTAAACAAATTTTCCTAATCTTTCTGTTCAAGCGCCATCTAC,0.382
21,GATGATTGTTCTCCCAGCTGATGAATTTTCCTCTTCGAGTAAACAAATTTTCCTAATCTTTCTGTTCAAGCGCCATCTAC,0.203
